Source: PubChem BioAssay AID686979 (National Center for Advancing Translational Sciences (NCATS), 2013)
In all, about 420,000 compounds went through this assay and about 50,000 (12%) were called active. Inconclusive results, whose numbers are uncertain, are shown with a selection of clear calls. Calls come from the whole dose curve; as a rule, active = well fitted inhibition curve with a large enough effect; inconclusive = small, poorly fitted or top-dose-only effect; inactive = flat fitted curve, though single readings scatter. No potency is given beside an inconclusive call; the fits are too rough.

assay: qHTS for Inhibitors of human tyrosyl-DNA phosphodiesterase 1 (TDP1): qHTS in cells in presence of CPT; details: chicken DT40 Tdp1-/-;hTDP1 cells + 20 nM CPT, ATP luminescence, 48 h; activity change, negative = growth inhibition: at 46.2 µM (top of the series); note: nearly all actives have a fitted effect of over 55% in size
Outline: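 Cell growth measured by CellTiter-Glo luminescence after a minimum 48 h, 37 C compound exposure with 20 nM CPT in Tdp1-knockout DT40 cells stably expressing hTDP1, seeded 400/well; qHTS titration format.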
% is set by controls: 0 for no effect and ±100 for the full control effect; potency is the fitted concentration of half-maximal effect; tags give direction and shape of the fitted curve.

Question: Which Potency does the source give for `Cc1cc(OCC(=O)Nc2cccc(S(=O)(=O)NC3=NCCCCC3)c2)ccc1Cl` here?
Answer: inconclusive [inhibitor, single point]

Question: Which Potency does the source give for `COc1cccc(NS(=O)(=O)c2csc(C(N)=O)c2)c1` here?
Answer: inconclusive [inhibitor, single point]

Question: For `CN1CCN(C(=S)NC(=O)c2ccc(Cl)cc2)CC1`, which Potency is on record?
Answer: inconclusive [inhibitor, single point]

Question: Which Potency does the source give for `O=C(Nc1nnc(COc2ccc(Cl)cc2)s1)c1ccco1` here?
Answer: active: 29.1 µM

Question: Which Potency does the source give for `CCOC(=O)c1c(-c2ccccc2)nnn1-c1nc(OC)nc(N2CCOCC2)n1` here?
Answer: active: 23.1 µM

Question: For `CCCC(C(=O)NCC1CCCO1)N(Cc1ccccc1)C(=O)CNS(=O)(=O)c1ccccc1` (stereo unspecified), which activity change, negative = growth inhibition is on record?
Answer: inconclusive: -35% [inhibitor]

Question: Which Potency does the source give for `COC(=O)NC(=S)Nc1ccc(Oc2ccc(Cl)cc2Cl)c(Cl)c1` here?
Answer: active: 9.2 µM

Question: Which Potency does the source give for `CCn1cc(CN2CCCC(CO)(Cc3ccc(F)cc3)C2)c2ccccc21` (stereo unspecified) here?
Answer: inconclusive [inhibitor, single point]

Question: For `CCCSc1cc(NCCOC(=O)CCC)c([N+](=O)[O-])c2nonc12`, which Potency is on record?
Answer: active: 2.59 µM

Question: With `O=C1C[C@H]2C=CCc3cccc(c32)CN1Cc1ccc(Br)cc1` as the compound, how does the Potency read?
Answer: inconclusive [inhibitor, single point]

Question: Which Potency does the source give for `CC1=C(C(=O)O)N2C(=O)C(NC(=O)c3ccn(C)n3)C2SC1` (stereo unspecified) here?
Answer: inconclusive [inhibitor, single point]

Question: Which Potency does the source give for `CC(=O)NC(c1ccccc1)c1nc(-c2ccccc2)cs1` (stereo unspecified) here?
Answer: inconclusive [inhibitor, single point]

Question: For `COc1ccccc1C(=O)Nc1nc2ccccc2s1`, which Potency is on record?
Answer: active: 16.4 µM

Question: For `OCc1nc2ccccc2n1CCCCOc1ccccc1`, which Potency is on record?
Answer: inconclusive [inhibitor, single point]

Question: With `COc1ccccc1N1CCN(C(=O)COc2cc(C)ccc2C)CC1` as the compound, how does the Potency read?
Answer: inconclusive [inhibitor, single point]

Question: With `COCCn1c(-c2cccc(Br)c2)nc2c(c(=O)c3ccccc3n2C)c1=O` as the compound, how does the Potency read?
Answer: inconclusive [inhibitor, single point]

Question: With `O=C(c1cccs1)N1CCN(C/C=C/c2ccccc2)CC1` as the compound, how does the Potency read?
Answer: inconclusive [inhibitor, single point]

Question: With `COc1ccccc1-c1noc2c1C(=O)N(C(=O)OC(C)(C)C)CC2` as the compound, how does the “activity change, negative = growth inhibition” value read?
Answer: inactive: -8.17%

Question: With `O=C(C[n+]1cc(-c2ccccc2)n2c1CCCCC2)c1ccc(Br)cc1` as the compound, how does the Potency read?
Answer: active: 20.6 µM

Question: For `COC(=O)CNC(c1ccccc1)c1cc(C)ccc1NC(=O)CNC(=O)OCc1ccccc1` (stereo unspecified), which Potency is on record?
Answer: inconclusive [inhibitor, single point]

Question: With `Cc1cc(C)c(CN2CCN(C(=O)Cn3cnc(C(=O)Nc4ccc(C)c(C)c4)n3)CC2)c(C)c1` as the compound, how does the Potency read?
Answer: inconclusive [inhibitor, single point]

Question: Which Potency does the source give for `COc1cc(CN(CCN(C)C)Cc2ccccc2)ccc1OCc1ccccc1` here?
Answer: inconclusive [inhibitor, single point]

Question: Which activity change, negative = growth inhibition does the source give for `O=S(=O)(NCc1nc(N2CCCC2)c2cc(Cl)ccc2n1)c1ccccc1OC(F)(F)F` here?
Answer: inactive: 17.5% [at 9.04 µM]

Question: Which Potency does the source give for `O=C1C(=O)N(Cc2cccs2)c2ccccc21` here?
Answer: active: 4.61 µM

Question: With `c1ccc(-c2noc(CN3CCN(c4cnccn4)CC3)n2)cc1` as the compound, how does the Potency read?
Answer: inconclusive [inhibitor, single point]

Question: With `O=C(c1ccncc1)N1N=C(c2ccc(Cl)cc2)CC1c1ccccc1O` (stereo unspecified) as the compound, how does the Potency read?
Answer: inconclusive [inhibitor, single point]

Question: Which Potency does the source give for `COc1cc(Cl)cc(/C=C/c2ccc3cccc(O)c3n2)c1OC` here?
Answer: inconclusive [inhibitor, single point]

Question: For `O=C(Nc1cccnc1)C1Cc2c(-c3ccc4c(c3)OCO4)ccnc2O1` (stereo unspecified), which Potency is on record?
Answer: active: 20.6 µM

Question: Which “activity change, negative = growth inhibition” value does the source give for `CCOC(=O)N1CCN(c2nnc(-c3ccccc3)c3ccccc23)CC1` here?
Answer: inactive: -8.49%

Question: With `CC1CN(CCCSc2ccc(Cl)cc2)CC(C)O1` (stereo unspecified) as the compound, how does the Potency read?
Answer: inconclusive [inhibitor, single point]

Question: For `CCc1ccc(-n2c(C)nc3cc(C(=O)NCCc4ccccc4)ccc32)cc1`, which Potency is on record?
Answer: active: 20.6 µM

Question: With `CCc1c(O)nc(SCC(=O)Nc2ccccc2)n(-c2ccccc2)c1=O` as the compound, how does the Potency read?
Answer: inconclusive [inhibitor, single point]

Question: Which Potency does the source give for `CN(C)c1ccc(CN(CC2CCCO2)C(=O)COc2ccc(Cl)cc2)cc1` (stereo unspecified) here?
Answer: active: 25.9 µM

Question: Which Potency does the source give for `C#CCN(C[C@@H](CC(C)C)NC(=O)OC(C)(C)C)S(=O)(=O)c1ccc(Br)cc1F` here?
Answer: inconclusive [inhibitor, single point]

Question: Which Potency does the source give for `C/C(=N\NC(=O)CC#N)C1COc2ccccc2O1` (stereo unspecified) here?
Answer: inconclusive [inhibitor, single point]

Question: Which “activity change, negative = growth inhibition” value does the source give for `CC1c2ccsc2CCN1C(=O)NC(=O)c1ccc(Cl)cc1` (stereo unspecified) here?
Answer: inactive: -6.86%

Question: For `CC(=NNC(=S)N1CCCC1)c1ccccn1`, which “activity change, negative = growth inhibition” value is on record?
Answer: inactive: -82.6%

Question: Which Potency does the source give for `CCOc1ccc(Nc2nc(Cc3nnc(SCC(=O)c4ccc(C)cc4)o3)cs2)cc1` here?
Answer: inconclusive [inhibitor, single point]

Question: For `Cc1cc(O)c(C(c2cccc(Cl)c2)N2CCN(c3ccccc3)CC2)c(=O)n1Cc1ccco1` (stereo unspecified), which Potency is on record?
Answer: inconclusive [inhibitor, single point]

Question: With `COc1ccc(CCNC(=O)C(=O)NCC2OCCN2S(=O)(=O)c2ccccc2)cc1` (stereo unspecified) as the compound, how does the Potency read?
Answer: inconclusive [inhibitor, single point]

Question: Which “activity change, negative = growth inhibition” value does the source give for `COc1cccc(Oc2ncnc(N)c2[N+](=O)[O-])c1` here?
Answer: inactive: 2.55%

Question: With `COc1ccc(CN2C(=O)c3cccnc3C2=O)cc1S(=O)(=O)NC(C)C` as the compound, how does the “activity change, negative = growth inhibition” value read?
Answer: inactive: -4.45%

Question: With `Cc1cc(-n2c(=O)c(C#N)cc3c(=O)n4cccc(C)c4nc32)no1` as the compound, how does the activity change, negative = growth inhibition read?
Answer: inconclusive: -28.3% [inhibitor]

Question: For `COc1nc(N)nc2c1ncn2C1OC(CO)CC1O` (stereo unspecified), which Potency is on record?
Answer: active: 1.03 µM

Question: For `CC(=O)Nc1cccc(-c2ccnc3c2CC(C(=O)Nc2cccc(Oc4ccccc4)c2)O3)c1` (stereo unspecified), which Potency is on record?
Answer: inconclusive [inhibitor, partial curve, poor fit]

Question: With `COc1ccccc1NC(=O)c1ccc2c(c1)C(=O)N(Cc1ccco1)C2=O` as the compound, how does the Potency read?
Answer: inconclusive [inhibitor, full curve, poor fit]

Question: Which Potency does the source give for `COc1cccc(CN2C(=O)c3ccccc3C2C(=O)NCCc2ccc(OC)c(OC)c2)c1` (stereo unspecified) here?
Answer: inconclusive [inhibitor, single point]

Question: For `CCOC(=O)c1c(C)nn(-c2ccc(NC(=O)c3cccs3)cc2)c1C`, which Potency is on record?
Answer: active: 23.1 µM

Question: Which Potency does the source give for `CC(C)CC(=O)Nc1ccc(C(=O)OCc2cc(=O)n3nc(C4CCCCC4)sc3n2)cc1` here?
Answer: inconclusive [inhibitor, single point]

Question: For `Cc1cc(C)n(CCn2nc(C)cc2C)n1`, which “activity change, negative = growth inhibition” value is on record?
Answer: inactive: 11.9%

Question: Which Potency does the source give for `CCN1/C(=C/c2ccc3ccc(C)cc3[n+]2CC)Sc2ccccc21` here?
Answer: active: 2.06 µM

Question: With `COc1ccccc1NC(=O)CSc1ncc2c(n1)-c1cc(Cl)ccc1N(C)S2(=O)=O` as the compound, how does the Potency read?
Answer: active: 7.31 µM

Question: With `COCCN(Cc1cc2cc(C)ccc2n2nnnc12)C(=S)Nc1ccc(OC)cc1` as the compound, how does the Potency read?
Answer: inconclusive [inhibitor, single point]

Question: With `CCCNC(=O)c1cc(C2CCCCN2S(=O)(=O)c2cccc3cccnc23)on1` (stereo unspecified) as the compound, how does the Potency read?
Answer: inconclusive [inhibitor, single point]

Question: With `CCn1c(=O)cc(SCC(=O)Nc2ccc(C)cn2)c2ccccc21` as the compound, how does the Potency read?
Answer: inconclusive [inhibitor, single point]

Question: Which Potency does the source give for `CC(C)(C)NC(=O)C(c1ccccc1F)n1c(=O)c(-c2ccccc2)nc2ccccc21` (stereo unspecified) here?
Answer: inconclusive [inhibitor, partial curve]

Question: For `Cc1ccc(-c2cc(C(=O)Nc3ccccn3)c3ccccc3n2)o1`, which Potency is on record?
Answer: inconclusive [inhibitor, single point]

Question: For `COC(=O)c1cc(S(=O)(=O)NCCc2ccc(SC)cc2)c[nH]1`, which Potency is on record?
Answer: inconclusive [inhibitor, single point]

Question: Which “activity change, negative = growth inhibition” value does the source give for `Cc1ccc(CNC(=O)CS(=O)CC(=O)O)cc1` (stereo unspecified) here?
Answer: inactive: 1.15%

Question: For `Cc1ccc(N2CCN(CC(O)COc3ccccc3)CC2)cc1` (stereo unspecified), which “activity change, negative = growth inhibition” value is on record?
Answer: inactive: 25.1%

Question: With `CCC1CN(C(=O)NCc2ccc(F)cc2)c2ccccc2O1` (stereo unspecified) as the compound, how does the Potency read?
Answer: inconclusive [inhibitor, single point]

Question: For `CC(=O)c1ccccc1NC(=O)c1ccc(N2CCCC2=O)cc1`, which Potency is on record?
Answer: inconclusive [inhibitor, single point]

Question: With `Nc1nc(SCC(=O)N2N=C3/C(=C\c4ccco4)CCCC3C2c2ccco2)n[nH]1` (stereo unspecified) as the compound, how does the Potency read?
Answer: inconclusive [inhibitor, single point]

Question: For `Cc1ccc(C(=O)NC(=C(Cl)Cl)S(=O)(=O)c2ccc(Cl)cc2)cc1`, which Potency is on record?
Answer: inconclusive [inhibitor, single point]

Question: With `Cn1c(=O)c(/C=C/c2ccccc2)nc2ccccc21` as the compound, how does the Potency read?
Answer: inconclusive [inhibitor, single point]

Question: For `O=C1Nc2ccccc2C1=Nc1cccc(Cl)c1`, which “activity change, negative = growth inhibition” value is on record?
Answer: inactive: -11.5%

Question: With `COc1ccc(/C=C/C2=NN(Cc3ccccc3)C(=O)CC2)cc1` as the compound, how does the Potency read?
Answer: inconclusive [inhibitor, partial curve]

Question: With `Cc1oc(-c2ccc3ccccc3c2)nc1CN(C)C(C)c1ccncn1` (stereo unspecified) as the compound, how does the Potency read?
Answer: inconclusive [inhibitor, single point]

Question: Which Potency does the source give for `CC1CCN(S(=O)(=O)c2ccc3c(c2)c(=O)c(C(=O)NC2CCCC2)cn3C)CC1` here?
Answer: inconclusive [inhibitor, single point]

Question: With `CC(C)n1nc(C(=O)NNC(=O)c2ccncc2)c2ccccc2c1=O` as the compound, how does the “activity change, negative = growth inhibition” value read?
Answer: inactive: -5.58%

Question: With `CC(C)(Cc1c[nH]c2ccccc12)NCC(O)COc1ccccc1C#N` (stereo unspecified) as the compound, how does the Potency read?
Answer: active: 21.1 µM
